PMC4336329 (PLoS ONE, 2015)
The campaign covered roughly 310,000 compounds. About 14,000 (4.5%) showed an effect of 50% or more. Effects have a minus sign here. This is one part of the list.

Biological target: human ether-à-go-go-related gene (hERG) potassium channel (human, UniProt Q12809)
Test: primary screen, population patch clamp on CHO cells stably expressing hERG
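Note: peak tail current of the secondary pulse compared with the same well before compound.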

human ether-à-go-go-related gene (hERG) potassium channel, sequence (Q12809 whole entry, looked up): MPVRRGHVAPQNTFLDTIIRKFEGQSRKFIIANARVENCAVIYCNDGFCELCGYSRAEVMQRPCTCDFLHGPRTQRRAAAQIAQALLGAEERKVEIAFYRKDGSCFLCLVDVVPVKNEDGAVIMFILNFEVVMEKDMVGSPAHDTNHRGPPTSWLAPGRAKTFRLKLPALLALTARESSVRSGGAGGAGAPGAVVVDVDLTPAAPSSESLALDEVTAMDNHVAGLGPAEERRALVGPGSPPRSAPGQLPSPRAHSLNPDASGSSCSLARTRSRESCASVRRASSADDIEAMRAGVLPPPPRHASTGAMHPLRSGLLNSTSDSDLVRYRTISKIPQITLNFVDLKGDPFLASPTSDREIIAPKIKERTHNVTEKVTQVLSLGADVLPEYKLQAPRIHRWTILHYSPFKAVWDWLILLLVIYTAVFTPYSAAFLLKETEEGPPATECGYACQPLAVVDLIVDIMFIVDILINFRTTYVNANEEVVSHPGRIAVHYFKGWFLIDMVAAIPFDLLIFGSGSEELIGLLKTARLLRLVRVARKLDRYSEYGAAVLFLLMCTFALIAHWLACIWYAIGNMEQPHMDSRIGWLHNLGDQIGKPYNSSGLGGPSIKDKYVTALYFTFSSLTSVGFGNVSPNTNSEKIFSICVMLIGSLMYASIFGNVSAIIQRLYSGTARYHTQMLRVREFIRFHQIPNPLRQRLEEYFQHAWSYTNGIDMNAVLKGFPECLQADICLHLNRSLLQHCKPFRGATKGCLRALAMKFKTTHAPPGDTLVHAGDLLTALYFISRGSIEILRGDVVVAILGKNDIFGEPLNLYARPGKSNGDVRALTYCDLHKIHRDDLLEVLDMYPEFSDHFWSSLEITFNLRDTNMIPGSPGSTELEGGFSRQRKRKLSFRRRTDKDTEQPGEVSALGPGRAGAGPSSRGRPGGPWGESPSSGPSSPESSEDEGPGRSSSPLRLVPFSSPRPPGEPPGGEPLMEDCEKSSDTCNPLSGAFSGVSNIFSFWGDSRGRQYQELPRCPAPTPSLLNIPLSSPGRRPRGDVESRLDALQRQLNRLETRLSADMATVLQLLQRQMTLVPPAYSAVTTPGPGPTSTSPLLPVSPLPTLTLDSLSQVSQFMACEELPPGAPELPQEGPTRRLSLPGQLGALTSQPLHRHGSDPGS

SMILES	hERG current change (%, negative = inhibition) at 10uM [%]
Cc1cc(C)cc(NC2=NCCCS2)c1	-15.2
O=C(NCC(=O)N1CCCCCCC1)c1ccccc1Br	6.24
COc1ccc(C2NC(=O)NC(C)=C2C(=O)OC2CCCCC2)cc1OC (centres unmarked)	3.27
Cc1c(NC(=O)c2c(N)sc3c2CCCC3)c(=O)n(-c2ccccc2)n1C	-9.72
CCC(CC)C(=O)Nc1ccc(C)c(O)c1	4.51
COc1ccc(S(=O)(=O)N2CCOC2CNC(=O)C(=O)NCc2ccco2)cc1C (centres unmarked)	-13.9
CCOC(=O)C(=NCCOC)NNc1cc(Cl)ccc1Cl	-7.8
C=C(C)C(=O)Nc1cccc(C2=NOC3(C2)C[C@H](C(N)=O)N(C(=O)CC)C3)c1 (some centres unmarked)	0.598
COc1cccc(C2C([N+](=O)[O-])=C(N)Oc3c2c(=O)oc2ccccc32)c1 (centres unmarked)	4.87
Cc1nn(C)c(Cl)c1NC(=O)OCc1ccc(Cl)cc1Cl	-6.17
Cc1ccc2nc(SCC(=O)c3ccc(Cl)s3)[nH]c2c1	10.2
Cc1cccc(C)c1NC(=O)c1cnccn1	15.3
CC(=O)c1ccccc1NC(=O)CSc1nnc(Cc2csc(C)n2)o1	6.38
CCCc1[nH]nc2c1C(c1ccc(OC)c(Cn3nc(C)c(Br)c3C)c1)C(C#N)=C(N)O2 (centres unmarked)	-4.82
C/C(CS(=O)(=O)c1ccc(Cl)c(Cl)c1)=N/NC(N)=S	-18.3
Fc1ccc(-c2nnn(Cc3ccc(F)cc3Cl)n2)cc1	6.42
Cc1ccc(Sc2ncccc2C(=O)NCC(c2ccc(F)cc2)N2CCOCC2)c(C)c1 (centres unmarked)	-19.1
Oc1ccccc1/C=N/n1c(-c2ccccc2)n[nH]c1=S	12.2
O=C(Cc1cccs1)N1CCN=C1SCc1ccc(F)cc1	-16.7

SMILES	hERG current change (%, negative = inhibition) at 10uM [%]
COc1ccc(OC)c(-c2cc(C(=O)Nc3ccccc3C(N)=O)c3ccccc3n2)c1	-5.58
Cc1cc(NC(=O)COC(=O)C2CCCN2C(=O)c2cccs2)no1 (centres unmarked)	-4.36
CCCOc1ccccc1C(=O)NC(CO)C(=O)O (centres unmarked)	7.66
CCCN(C(=O)c1ccco1)c1nnc(-c2cccc(C)c2)s1	-8.91
C=CCNC(=O)CSc1n[nH]c(-c2cc(Cl)ccc2OC)n1	8.25
CC(C)(C)C(=O)CSc1ccc(S(=O)(=O)N2CCN(Cc3ccccc3)CC2)cn1	-0.498
CCOC(=O)C1CCN(C(=O)CCc2ccccc2)CC1	2.13
COc1cc(/C=N/n2cnnc2)ccc1OC(=O)c1ccco1	-0.71
CCN(CC(=O)NCc1ccc(Cl)cc1)C(=O)CSc1ccc(F)cc1	-71.1
O=C(NCCc1ccccc1)/C(=C\c1ccc([N+](=O)[O-])cc1)NC(=O)c1ccc(Br)cc1	-37.8
O=C(Nc1ccccc1-c1nc2ccccc2[nH]1)c1ccc(N2C(=O)CCC2=O)cc1	9.99
O=C(CCc1nnc(CCC2CCCCC2)o1)NCc1ccon1	3.59
CCN(CC)S(=O)(=O)c1ccc(O)c(C(=O)OCC(=O)N2c3ccccc3CC2C)c1 (centres unmarked)	-36.2
COc1ccc(/C=N/NC(=O)c2ccc3nc[nH]c3c2)cc1	14.3
COc1ccc(N2CCN(C(=O)CCc3nnc4ccc(N5CCOCC5)nn34)CC2)cc1	-5.83
CC(C)CCNC(=O)C1CCN(S(=O)(=O)c2ccc3c(c2)CC(C)N3C(=O)C2CCC2)CC1 (centres unmarked)	-12.7
Cc1cccc(S(=O)(=O)NNC(=O)c2sc(C)nc2C)c1	4.73
COc1ccc(N=C2NC(=O)CS2)c([N+](=O)[O-])c1	11.4
Cc1cccc(C(=O)N2CCCC(CCC(=O)N3CCN(c4ccccn4)CC3)C2)c1C (centres unmarked)	-17.3

SMILES	hERG current change (%, negative = inhibition) at 10uM [%]
Cc1cc(C)c2c(N)c(C(=O)NN)sc2n1	12.2
CCOc1cccc(CN2CCC(N3CCC(C(=O)NCC4CCCO4)CC3)CC2)c1 (centres unmarked)	-10.5
CC(=O)N(C)C1(c2nnnn2CCOC(=O)Nc2ccc(Cl)cc2)CCCCC1	-5.08
O=C(CCN1C(=O)c2ccccc2C1=O)OCn1nnc2ccccc2c1=O	7.17
Cc1nc2ccc([N+](=O)[O-])cc2s1	7.38
O=c1c2ccccc2nc(/C=C/c2ccc(O)c(O)c2)n1-c1ccccc1	-1.36
CN(C)c1ccc(/C=N/Nc2nc3ccccc3o2)cc1	23.7
CCO/N=C(\N)c1[nH]ncc1Br	7.38
COCCNc1nc(N)c([N+](=O)[O-])c(NCCO)n1	-2.23
O=C(CNC(=O)c1ccc2ccccc2c1)OCC(=O)N1CCN(S(=O)(=O)c2ccc3ccccc3c2)CC1	26.4
COc1ccc(NC(=O)CN2CCN(c3nc(-c4cccc(OC)c4)cs3)CC2)cc1	-25.1
COc1ccc(NC(=O)CSc2nnc(C3CC3)n2C)cc1S(=O)(=O)N1CCOCC1	-0.595
O=C(O)C(=O)O.OC(CNC1CCCc2ccccc21)COc1c(Cl)cccc1Cl (centres unmarked)	-56.5
CC1(C)Oc2ccc(C(=O)N3CCOCC3)cc2N(CC(=O)N2CCOCC2)C1=O	18.7
COc1ccccc1CCNC(=O)C(=O)NCC1OCCN1S(=O)(=O)c1ccc(C)cc1 (centres unmarked)	-10.2
O=C(NC1CCN(Cc2ccccc2)CC1)C1CCN(c2nnc(-n3cccc3)s2)CC1	-59
Cc1ccc(-c2nn(Cc3ccccc3)cc2/C=C/C(=O)O)cc1	9.14
CCOC(=O)C1=C(c2ccccc2)NC(=O)NC1c1ccsc1 (centres unmarked)	20.9
